# Test results: PMC12136788
# The other results are listed elsewhere or left out.
# T1: UNK ZnF1-3 (human, UniProt Q9C0B0 31-174)
# T1 sequence: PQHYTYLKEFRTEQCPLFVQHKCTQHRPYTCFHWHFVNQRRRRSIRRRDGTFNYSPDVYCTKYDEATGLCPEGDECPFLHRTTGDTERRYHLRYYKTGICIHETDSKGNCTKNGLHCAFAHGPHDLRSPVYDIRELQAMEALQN
# B1: 111630612_111631619_1632_CDS_ENSG00000108039_ENST00000369680|human|control|control (ssRNA)
# RNA: GGGAGUUCUACAGUCCGACGAUCUAGGCCUGAAUCCCAUAAAGCUGAACGGGCAAAGGAGUCAAGAAGGUGACCUUUGGUUCCAGUCGGGAAAACGGCUGCACUCACAGCUAUGUGGCCCUUGAGGACAUAUGUGAAGCAUUCCAACAGAGGAUUGAGCAUCA
# B2: 112490949_112493535_1126_CDS_ENSMUSG00000021277_ENSMUST00000021706|mouse|control|control (ssRNA)
# RNA: GGGAGUUCUACAGUCCGACGAUCCUCCUUCUGCCUCUCAAUCUCGAUCUCAAAGCUGCAGAUCUGGUUGUGCAGGCUUUGGAUGCUCUUGUUUUUCUCAACACUUUCAUUCUGCAGCAGGGAAACCUUCUUCUCCAGGGAGUUCAACAGAGGAUUGAGCAUCA
# B3: chr1:60041781:60041782:+_ENSMUSG00000041040_ENSMUST00000036540|mus_hu|mus_mus_mus_hu_False|1_88 (ssRNA)
# RNA: GGGAGUUCUACAGUCCGACGAUCAAGUUUACAAUAGUAAAGUAAAUCAAAUUUAGUCAAAUUUUCUUUUAUUUUCCUUCACAAAAGAAAAUCUUUAUAACCCAGUCCUAGUCUUGGACAUAGUGAAAGCUAUAAAUGCCACUGCAACAGAGGAUUGAGCAUCA
# B4: 22939207_22940788_1184_CDS_ENSG00000068793_ENST00000560848|human|control|control (ssRNA)
# RNA: GGGAGUUCUACAGUCCGACGAUCCUGGAUCAUCUGCUCGCAGAUGUUGUACUGAGGGCUGCUGCCGGAGGAUGUGCACGUCCAUCGAGAUUUAUUUUCCUCGUAGUGGGCGCUGGUCUUGAUAUAUCUUGCCAGUUCUAUUUGCAACAGAGGAUUGAGCAUCA
# B5: chr18:43482012:43482013:-_ENSMUSG00000024501_ENSMUST00000121805|mus_hu|motif|central (ssRNA)
# RNA: GGGAGUUCUACAGUCCGACGAUCUCUGAAAGACCCCCACAUCUUUGAAGUGUAAACUAAGAGCUACAUUUUCCCUUUUACGGCAUCUCCCUUAAAAGAAAAGCACUACAAGAGCUUUAAAAUAGCAAGCUUCCCUAUUCUAAGCAACAGAGGAUUGAGCAUCA
# B6: chr2:5814250:5814251:-_ENSMUSG00000025816_ENSMUST00000102981|mus_hu|mus_mus_mus_hu_True|18_68 (ssRNA)
# RNA: GGGAGUUCUACAGUCCGACGAUCUUCCUUUCCGGUUUCUGAAUUUCUGGUAGAACUGCACAGAAUGGUUUAAUAACUUCUAAAAAUUUGAUGCCCAUGGCUGCUGCUGGGGAGGCCCGGCGGGCACCCGCGGCCUCGGCGCUGCAACAGAGGAUUGAGCAUCA
# B7: chr12:3264740:3264741:-_ENSMUSG00000020671_ENSMUST00000021001|mus_hu|motif|central (ssRNA)
# RNA: GGGAGUUCUACAGUCCGACGAUCCCAUAUCUGUAGCUUGAUCUUCUUUCCUUGUAAUUCAACUGUUUUGAUCUUGAAGUCGGUUCCGGUGGUGGAAAUAAAGGUAGUAUUGAAGGCAUCAUCCGAAAAACGAAAAAGGACGCACAACAGAGGAUUGAGCAUCA
# B8: chr9:82820052:82820053:-_ENSMUSG00000032253_ENSMUST00000034787|mus_hu|FALSE|FALSE (ssRNA)
# RNA: GGGAGUUCUACAGUCCGACGAUCGCCAUGUCCUUGGCCUUCAAUCAUAUUGAAAUAAGAUCGUAUUUUGACUCCUCUUGCCAGAUCCCACACUAUCACGUUUCCAUCAUGACCAGCAGAAAAGAGAACUCUAGGAUCGAACGGCAACAGAGGAUUGAGCAUCA
# B9: chr14:78183846:78183847:+_ENSG00000119705_ENST00000557342|hu_hu|hu_hu_hu_mus_False|28_48 (ssRNA)
# RNA: GGGAGUUCUACAGUCCGACGAUCUCUCAGAAAUCUUUCUUCAUCAGAUGUUUGAGCUCCGUGCAAAGCCUUUGCUCUUUGAGCUUGAACCUGGACCUAUGGGAGGGCUAUAAUAUGCAGAAAAGGUAAUUUUUUUUUUAAAGACAACAGAGGAUUGAGCAUCA
# B10: chr15:76911759:76911760:-_ENSMUSG00000033565_ENSMUST00000166610|mus_mus|FALSE|FALSE (ssRNA)
# RNA: GGGAGUUCUACAGUCCGACGAUCGAGGAACAUCCAGACAAACAUUUUCACUACAAGUCUCCUUAAAGGAAUCCAGCUUCUAGUAAUAUUCGCAGCAUAGAAAGCCCAGGCCACAGAGGCCUGCAAAACUGCAAACACCCUUCUCAACAGAGGAUUGAGCAUCA
# B11: chr2:198267414:198267415:-_ENSG00000115524_ENST00000335508|hu_mus|FALSE|FALSE (ssRNA)
# RNA: GGGAGUUCUACAGUCCGACGAUCCUUAAUACCAGUGUGCCUCGCUUGCCAAGACUUCUUGCUUUUGCACACAGCUUUUAAGAAAGGCAAUAAAGAAGGGAUGCCCAGGGCAGAGGCUACGACAGCAAAAGCUCUAGCUGUUGUCAACAGAGGAUUGAGCAUCA
# B12: chr4:76721835:76721836:+_ENSG00000138768_ENST00000264904|hu_mus|hu_hu_hu_mus_True|38_108 (ssRNA)
# RNA: GGGAGUUCUACAGUCCGACGAUCGUUGGCUGGGGUUUUCUGAGACGCUCUGGAAUAUAACUCAUGUUUGCUAAUAAAUCCUAGUUUCUCUAUGAAAUCUCUUUGCCCAAUCCUCUUCUCUAUUAGUUGCUUUAGUUUCUCUUUCAACAGAGGAUUGAGCAUCA
# B13: 42876404_42876524_3757_CDS_ENSG00000023516_ENST00000025301|human|control|control (ssRNA)
# RNA: GGGAGUUCUACAGUCCGACGAUCUGCCAUUUCAGUUGCAAGAGAAAGGAUGUGUGUAGCUAAUGCUUCUGCAAACUGAACCUUCUUCCCUGAGUGCUCCGACUUCACAUCCACUUCUGGGAGCUCUCCACUUUCACUACUCUCCAACAGAGGAUUGAGCAUCA
# B14: chr7:44244176:44244177:+_ENSG00000106636_ENST00000223369|hu_mus|hu_hu_hu_mus_False|38_88 (ssRNA)
# RNA: GGGAGUUCUACAGUCCGACGAUCACUGUCGCUCCGGACGUAGACAUGGCACAGAUACUCUUGUUCUUUGACAGAAGCUCUGCUGCCUUUCCCCGAGCGCUCCACAAUCAGUUGACUUGUAAAGGUCAUGAAUUCCUGCACACUCAACAGAGGAUUGAGCAUCA
# B15: chr19:32867047:32867048:+_ENSMUSG00000013663_ENSMUST00000013807|mus_mus|FALSE|FALSE (ssRNA)
# RNA: GGGAGUUCUACAGUCCGACGAUCAGCACAUAGAUUGUAUAUCUUGUAAUGGUUUUUAUGCUUUGAAUCCAAAAACCUUACUACAUCAUCAAUAUUGUUCCUGUAUACACCUUCAAGUCUUUCUGCAGGAAAUCCCAUAGCAAUCAACAGAGGAUUGAGCAUCA
# B16: 48807359_48807479_126_5pUTR_ENSG00000136156_ENST00000378565|human|control|control (ssRNA)
# RNA: GGGAGUUCUACAGUCCGACGAUCCCUCGAAGGGCGGCGGCGGGCUCGGGGCGCGGGCUGCGGGCUCCCGGCUGCGAUUGCAGCCUCUACGGCCGGGCUCCGGGAGCGGCUCCGGGCGGCUGAAGAGGUUCGGGAAGCUCCGCGCAACAGAGGAUUGAGCAUCA
# B17: chr17:37088456:37088457:-_ENSMUSG00000036398_ENSMUST00000040402|mus_hu|FALSE|FALSE (ssRNA)
# RNA: GGGAGUUCUACAGUCCGACGAUCGUAACCGUUGUCUCAGUGACGGUCUCGCUCAGCCCAGCCCCUGCCUCGGCCAUGGCUAAGGCUCAGGACAGGGAGGAGAGGAGGAAGGGGGAUGAGACACCCUUCCCUUUUUCUGUCGCUCAACAGAGGAUUGAGCAUCA
# B18: 17153793_17153913_863_3pUTR_ENSMUSG00000038965_ENSMUST00000090192|mouse|control|control (ssRNA)
# RNA: GGGAGUUCUACAGUCCGACGAUCAAACGUUGUCAGUGCUGCGGCCACCUCUGUGGGGAGCUGGGGCCUUGGUCUGUGGAAGUGGGAAUCGAAAAGUGGGGAGAGGGGAAGGGGGAAGAAACCACAACAACCUUUUUCUUUAAACAACAGAGGAUUGAGCAUCA
# B19: chrX:16870723:16870724:-_ENSG00000102054_ENST00000404022|hu_hu|FALSE|FALSE (ssRNA)
# RNA: GGGAGUUCUACAGUCCGACGAUCUUUAUGAGAUUCGAAGGUAUGGAGUUUUAAUUUUAAGUUACGCAGAUCCCAUAAAGCUACGGUCUUAUCCGCAGAGCCGGUGGCUAGAAUAAAUUCGCUGUAGGGAUUGAAUGAGAGGCACAACAGAGGAUUGAGCAUCA
# B20: chr3:159597999:159598000:+_ENSMUSG00000028173_ENSMUST00000068952|mus_mus|FALSE|FALSE (ssRNA)
# RNA: GGGAGUUCUACAGUCCGACGAUCAGCAAGAAGUUAAAAAAAGCUUUUAGGACCCAAAGGCCAUUUAAUACCAGAAAUCCUAUUUGGGUAGUUAAGCAAAUAUUUCUCAAAAUCCACAAACAAACAGACAGAUUAGUAUCAAAUCAACAGAGGAUUGAGCAUCA
# B21: chr11:77336104:77336105:-_ENSG00000074201_ENST00000525064|hu_mus|hu_hu_hu_mus_False|48_88 (ssRNA)
# RNA: GGGAGUUCUACAGUCCGACGAUCCUCACACAUUGCUGUGAACAUCGCCUCCAACGCUGACUUAUCACUGGGCACAAAUCGAAAUUCAGUAAUAGGUUCAACAUCAUCAUUGUCUUCCUCAUCUUCAUCAGAGAGAGGUUCUUUCAACAGAGGAUUGAGCAUCA
# B22: chr11:29608638:29608639:+_ENSMUSG00000020458_ENSMUST00000102843|mus_mus|FALSE|FALSE (ssRNA)
# RNA: GGGAGUUCUACAGUCCGACGAUCAAGUUUUUCCUCUGCUUCUUUCGUAAGUACUUUGGGUUUAACUAUGUUGCCCAUUUCUAUUUGAGAUUCCAAAGCAGAAACAUUUGGAAGCAAUAAGGGCACCUUAGAUACACUGGACCUCAACAGAGGAUUGAGCAUCA
# Biological target: T1, UNK ZnF1-3
# Assay: nsRBNS (natural sequence RNA bind-n-seq); RBNS binding buffer (assumed for nsRBNS): 25 mM Tris pH 7.5, 150 mM KCl, 3 mM MgCl2, 0.01% Triton X-100, 500 ug/ml BSA, 20 U/ml SUPERase-In, 4 C; UNK is unkempt and MSI1 is Musashi-1; names of the RNAs are library labels; protein concentration not given here; high values mean tight binding
row,Binder,binding signal
1,B1,1.33 enrichment R
2,B2,0.58 enrichment R
3,B3,0.569 enrichment R
4,B4,0.693 enrichment R
5,B5,1.36 enrichment R
6,B6,0.929 enrichment R
7,B7,1.71 enrichment R
8,B8,0.919 enrichment R
9,B9,1.79 enrichment R
10,B10,1.1 enrichment R
11,B11,1.12 enrichment R
12,B12,0.414 enrichment R
13,B13,0.809 enrichment R
14,B14,0.564 enrichment R
15,B15,0.876 enrichment R
16,B16,0.748 enrichment R
17,B17,0.412 enrichment R
18,B18,1.6 enrichment R
19,B19,1.36 enrichment R
20,B20,1.87 enrichment R
21,B21,1.07 enrichment R
22,B22,0.769 enrichment R
